Source: paper PMC11090508
Results are given in words; binding and its absence hold for the method and conditions named. In cells and extracts the contact can be indirect. Some results given as binding are weak or reduced against the parent protein; the word gives no strength. For some of these results: Tags and fused reporters may be left off the sequences shown.

Protein sequences, listed by entry. Tags and fused reporters are not part of them.
UniProt P23443: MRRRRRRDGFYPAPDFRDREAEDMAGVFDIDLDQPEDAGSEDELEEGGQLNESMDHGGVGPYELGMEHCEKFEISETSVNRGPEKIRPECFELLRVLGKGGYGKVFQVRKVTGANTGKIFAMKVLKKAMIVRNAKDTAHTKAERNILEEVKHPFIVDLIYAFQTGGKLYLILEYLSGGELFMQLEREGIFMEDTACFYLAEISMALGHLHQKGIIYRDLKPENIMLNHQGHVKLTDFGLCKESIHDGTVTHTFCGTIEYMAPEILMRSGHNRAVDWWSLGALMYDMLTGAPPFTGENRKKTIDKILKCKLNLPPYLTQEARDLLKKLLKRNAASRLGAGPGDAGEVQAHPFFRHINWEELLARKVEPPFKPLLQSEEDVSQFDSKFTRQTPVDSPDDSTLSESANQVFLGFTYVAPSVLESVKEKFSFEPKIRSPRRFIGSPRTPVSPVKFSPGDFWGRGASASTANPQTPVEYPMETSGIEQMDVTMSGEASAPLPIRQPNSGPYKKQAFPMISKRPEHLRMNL
UniProt P38919: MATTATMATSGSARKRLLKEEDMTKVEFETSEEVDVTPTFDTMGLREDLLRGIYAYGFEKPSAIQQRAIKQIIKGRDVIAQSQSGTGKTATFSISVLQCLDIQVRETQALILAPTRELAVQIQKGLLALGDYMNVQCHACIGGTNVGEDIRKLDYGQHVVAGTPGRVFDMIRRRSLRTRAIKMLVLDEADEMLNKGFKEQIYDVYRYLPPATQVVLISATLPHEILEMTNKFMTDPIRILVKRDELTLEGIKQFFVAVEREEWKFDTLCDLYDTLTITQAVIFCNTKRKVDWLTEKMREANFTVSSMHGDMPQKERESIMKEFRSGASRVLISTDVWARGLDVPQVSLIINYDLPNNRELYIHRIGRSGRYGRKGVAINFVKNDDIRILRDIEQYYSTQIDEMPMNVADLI
UniProt Q14240: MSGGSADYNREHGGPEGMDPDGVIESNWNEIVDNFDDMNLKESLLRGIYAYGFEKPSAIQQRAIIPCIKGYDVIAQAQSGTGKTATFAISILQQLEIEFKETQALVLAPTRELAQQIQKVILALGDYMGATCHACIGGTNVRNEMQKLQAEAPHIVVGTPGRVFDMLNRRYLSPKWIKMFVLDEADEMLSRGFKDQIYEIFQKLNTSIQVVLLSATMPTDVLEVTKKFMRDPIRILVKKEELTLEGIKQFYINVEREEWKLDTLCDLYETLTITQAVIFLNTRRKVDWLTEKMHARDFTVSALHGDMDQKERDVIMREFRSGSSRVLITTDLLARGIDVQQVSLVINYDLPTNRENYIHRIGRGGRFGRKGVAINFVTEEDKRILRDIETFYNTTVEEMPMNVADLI
UniProt P60842: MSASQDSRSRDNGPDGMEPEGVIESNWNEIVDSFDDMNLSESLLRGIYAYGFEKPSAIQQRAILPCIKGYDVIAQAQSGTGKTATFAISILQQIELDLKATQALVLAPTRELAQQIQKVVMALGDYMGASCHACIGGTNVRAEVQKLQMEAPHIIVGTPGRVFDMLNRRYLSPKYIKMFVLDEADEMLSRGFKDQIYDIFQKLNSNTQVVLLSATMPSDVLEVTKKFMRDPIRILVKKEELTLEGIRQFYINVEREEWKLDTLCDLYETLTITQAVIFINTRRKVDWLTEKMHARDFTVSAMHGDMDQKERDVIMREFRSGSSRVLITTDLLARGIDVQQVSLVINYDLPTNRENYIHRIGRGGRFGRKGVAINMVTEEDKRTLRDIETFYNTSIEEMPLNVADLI
UniProt P05198: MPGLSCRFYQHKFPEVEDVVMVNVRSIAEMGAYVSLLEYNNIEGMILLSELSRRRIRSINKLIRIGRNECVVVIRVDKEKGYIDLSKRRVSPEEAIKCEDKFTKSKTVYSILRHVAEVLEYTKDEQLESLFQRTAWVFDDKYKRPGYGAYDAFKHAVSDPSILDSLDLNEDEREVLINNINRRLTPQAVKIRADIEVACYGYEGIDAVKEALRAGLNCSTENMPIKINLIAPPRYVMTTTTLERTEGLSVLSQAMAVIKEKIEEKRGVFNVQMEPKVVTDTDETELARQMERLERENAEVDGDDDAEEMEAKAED
UniProt P06730: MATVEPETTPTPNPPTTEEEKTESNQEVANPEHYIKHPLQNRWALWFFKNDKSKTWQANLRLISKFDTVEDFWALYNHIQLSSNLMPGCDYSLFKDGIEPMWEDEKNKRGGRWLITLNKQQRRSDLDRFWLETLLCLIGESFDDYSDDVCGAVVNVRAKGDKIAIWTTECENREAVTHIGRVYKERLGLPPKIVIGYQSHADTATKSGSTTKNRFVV

Legend:
[1] = biological target: T1, IBTK, ectopically expressed in 293T cells (UniProt Q9P2D0); assay: co-IP; anti-FLAG co-IP from whole cell lysates of 293T cells transfected with the indicated plasmids, Western blot (Figures 1D-F, 5B-D)
T1 sequence: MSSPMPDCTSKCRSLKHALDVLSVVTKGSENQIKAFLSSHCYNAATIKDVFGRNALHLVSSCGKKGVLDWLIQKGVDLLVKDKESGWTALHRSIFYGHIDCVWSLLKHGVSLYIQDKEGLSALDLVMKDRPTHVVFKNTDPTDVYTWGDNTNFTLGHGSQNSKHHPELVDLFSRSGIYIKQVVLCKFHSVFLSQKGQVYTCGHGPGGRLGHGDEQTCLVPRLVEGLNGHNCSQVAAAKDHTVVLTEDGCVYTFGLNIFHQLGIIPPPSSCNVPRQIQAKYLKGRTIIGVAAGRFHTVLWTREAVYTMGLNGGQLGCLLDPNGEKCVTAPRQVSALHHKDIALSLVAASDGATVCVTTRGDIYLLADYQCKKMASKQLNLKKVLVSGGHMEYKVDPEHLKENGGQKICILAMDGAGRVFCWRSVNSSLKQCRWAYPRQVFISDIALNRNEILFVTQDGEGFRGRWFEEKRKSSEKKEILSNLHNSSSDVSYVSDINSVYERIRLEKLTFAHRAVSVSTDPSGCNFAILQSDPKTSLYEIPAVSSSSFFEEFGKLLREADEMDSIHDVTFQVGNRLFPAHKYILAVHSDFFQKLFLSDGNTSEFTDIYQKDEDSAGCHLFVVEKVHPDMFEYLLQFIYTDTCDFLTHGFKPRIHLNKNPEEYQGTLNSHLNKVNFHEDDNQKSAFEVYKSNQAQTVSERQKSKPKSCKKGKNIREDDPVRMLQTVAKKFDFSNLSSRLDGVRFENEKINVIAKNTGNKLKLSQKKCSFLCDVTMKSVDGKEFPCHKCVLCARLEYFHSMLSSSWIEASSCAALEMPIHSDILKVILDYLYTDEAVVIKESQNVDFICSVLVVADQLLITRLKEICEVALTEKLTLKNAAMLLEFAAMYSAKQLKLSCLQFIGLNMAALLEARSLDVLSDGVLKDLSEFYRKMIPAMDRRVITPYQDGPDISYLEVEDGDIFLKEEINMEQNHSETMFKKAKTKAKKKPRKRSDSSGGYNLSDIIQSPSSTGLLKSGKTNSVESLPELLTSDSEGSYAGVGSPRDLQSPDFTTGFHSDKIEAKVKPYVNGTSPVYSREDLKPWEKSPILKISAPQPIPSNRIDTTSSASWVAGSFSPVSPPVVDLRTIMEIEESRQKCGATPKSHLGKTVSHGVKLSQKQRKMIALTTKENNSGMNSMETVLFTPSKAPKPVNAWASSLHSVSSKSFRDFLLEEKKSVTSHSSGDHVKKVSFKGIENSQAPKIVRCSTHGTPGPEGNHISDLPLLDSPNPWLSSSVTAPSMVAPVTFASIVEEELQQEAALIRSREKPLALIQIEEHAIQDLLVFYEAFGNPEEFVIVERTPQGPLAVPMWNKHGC

[2] = biological target: T2, FLAG-BirA*-IBTK (inhibitor of Bruton's tyrosine kinase) (UniProt Q9P2D0); assay: co-IP; FLAG-BirA*-IBTK Tet-on Flp-In T-REx 293 cells with/without DOX (10 ng/ml, 12 hr); anti-FLAG co-IP, Western blot of endogenous proteins (Figure 1G)
T2 sequence: T1 sequence

[3] = biological target: T3, IBTK, endogenous (human (endogenous in 293T)) (UniProt Q9P2D0); assay: co-IP; endogenous co-IP with anti-eIF4A1, eIF4A2, eIF4A3 or IBTK antibody from whole cell lysates of 293T cells, Western blot (Figures 1H-K, 5E)
T3 sequence: T1 sequence

Substance | binding [1] | binding [2] | binding [3]
S6K1, ectopically expressed in 293T cells (from UniProt P23443 1-525) (enzyme) | binds |  | 
eIF4A3, endogenous (from UniProt P38919 1-411) |  | binds | binds
eIF4A2, endogenous (from UniProt Q14240 1-407) |  | binds | binds
S6K1, endogenous (from UniProt P23443 1-525) (enzyme) |  |  | binds
eIF4A1, endogenous (from UniProt P60842 1-406) |  | binds | binds
eIF4A3, ectopically expressed in 293T cells (from UniProt P38919 1-411) | binds |  | 
eIF4A2, ectopically expressed in 293T cells (from UniProt Q14240 1-407) | binds |  | 

Second part, the substance after the results:

binding [1] | binding [2] | binding [3] | Substance
 | binds |  | eIF2α, endogenous (from UniProt P05198 1-315)
 | no binding |  | eIF4E, endogenous (from UniProt P06730 1-217)
binds |  |  | eIF4A1, ectopically expressed in 293T cells (from UniProt P60842 1-406)
